In patent publication US4022909A, “Method of inhibiting the growth of bacteria using quaternary ammonium compounds” (IMC Chemical Group, Inc., priority 1976, dated 1977):

Tested on: bacteria
Assay: antibacterial activity by the streak plate test (in words)
Type: cell-based
Protocol: The compound was tested for antibacterial and antifungal activity by the streak plate test, which is known in the art. The test substance was incorporated into several portions of an agar medium at several known concentrations and the mixtures were placed in Petri dishes. Then streaks of test organisms were applied to the surface of the medium, the dishes were incubated under growth-promoting conditions, and then examined for growth of organisms. The results are reported as the Inhibition End-Point Range, the lower figure signifying a concentration that allows growth and the higher figure being a concentration that inhibits growth.

SMILES: CCCCCCCCCCCC(=O)OCC(C)(C)[N+](C)(C)C.[I-] [Example 2, (2-lauroyloxy-1,1-dimethylethyl)-trimethylammonium iodide]
- antibacterial activity: strong antibacterial activity against a variety of bacteria
